{"source": "PubChem BioAssay AID504832", "about": "(National Center for Advancing Translational Sciences (NCATS), 2011)", "note": "The whole screen tested about 310,000 compounds, of which about 18,000 (5.8%) were called active. Inconclusive means that the source gave no clear call. Such entries were picked first, then a sample of the others. The call rests on the fitted dose curve; in most records, active means well fitted inhibition curve with a large enough effect; inconclusive means small, poorly fitted or top-dose-only effect, or another doubt; inactive means no such curve, though single readings can be large or run the other way. No potency is given beside an inconclusive call; the fits are too rough. Potency means the concentration at half of the fitted maximal effect; tags describe the fitted curve by direction and shape."}
{"experiment": "Primary qHTS for delayed death inhibitors of the malarial parasite plastid, 48 hour incubation", "conditions": "P. falciparum luciferase growth in erythrocytes; series mostly up to 28.7 µM", "how_it_was_run": "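Here the parasites carry a stable luciferase gene and grow inside erythrocytes in Albumax-based RPMI medium with compound for one erythrocytic cycle. Activity is scored as loss of luminescent signal.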"}
{"smiles": "Cc1ccc(/C(O)=C/c2nc3cc(C)ccc3oc2=O)cc1", "Potency": "inconclusive [inhibitor, single point]"}
{"smiles": "Cc1noc(C)c1COC(=O)c1ccc2c(c1)OCCO2", "Potency": "inconclusive [inhibitor, partial curve, poor fit]"}
{"smiles": "Cc1ccnc(NC(=O)C2CCN(S(=O)(=O)c3ccc4c(c3)CC(C)N4C(=O)C3CCC3)CC2)c1", "note": "(stereo not drawn)", "Potency": "active: 10.4 µM"}
{"smiles": "NC(=O)CNC(=O)C1CCN(S(=O)(=O)c2ccc(-n3cnnn3)cc2)CC1", "Potency": "inactive"}
{"smiles": "O=C(CCCn1c(SCc2cc(=O)n3cc(Cl)ccc3n2)nc2ccccc2c1=O)NCC1CCCO1", "note": "(stereo not drawn)", "Potency": "active: 6.57 µM"}
{"smiles": "O=[N+]([O-])c1ccc(Cl)c(S(=O)(=O)Nc2cccc(-c3ccc(N4CCCC4)nn3)c2)c1", "Potency": "inactive"}
{"smiles": "COC(=O)C1=CN(Cc2ccccc2)C=C(C(=O)OC)C1c1ccc(O)c(OC)c1", "Potency": "active: 13.1 µM"}
{"smiles": "Cc1ccc[n+](CC(=O)Nc2ccc(Cl)c([N+](=O)[O-])c2)c1", "Potency": "inconclusive [inhibitor, partial curve, poor fit]"}
{"smiles": "CCn1nc(C)c(/C=N\\NC(=O)c2ccc3c(c2)OCO3)c1C", "Potency": "inactive"}
{"smiles": "CCc1nc2ccccc2c(C(=O)OCC(=O)N(CC(C)C)c2c(N)n(Cc3ccccc3)c(=O)[nH]c2=O)c1C", "Potency": "active: 11.7 µM"}
{"smiles": "O=C(N/N=C/c1ccc2cccnc2c1)c1ccco1", "Potency": "inactive"}
{"smiles": "CC(=O)Cc1nsc(NC(=O)c2ccc(-c3cccc(Cl)c3)o2)n1", "Potency": "inactive"}
{"smiles": "CC(C)(CNC(=O)c1ccc(Cl)c(S(=O)(=O)N2CCc3ccccc3C2)c1)N1CCOCC1", "Potency": "inconclusive [inhibitor, partial curve, poor fit]"}
{"smiles": "CCN(CC(=O)Nc1c(F)cccc1F)C(=O)c1cccc(S(=O)(=O)N2CCCCCC2)c1", "Potency": "inconclusive [inhibitor, partial curve, poor fit]"}
{"smiles": "CCN(CC)CC(=O)Nc1scc2c1c(=O)oc1ccccc12", "Potency": "inactive"}
{"smiles": "Cc1ccc(-n2c([S-])c(C(=O)Nc3ccc(OC(F)F)cc3)[n+]3ccc(C(=O)NCCO)cc23)cc1C", "Potency": "inconclusive [inhibitor, single point]"}
{"smiles": "CCc1ccc(N/C(SC)=C(/C#N)C(N)=O)cc1", "Potency": "inactive"}
{"smiles": "CCOc1ccc(/C=C/C(=O)NCc2ccccc2)cc1", "Potency": "inactive"}
{"smiles": "C[C@@]12CC[C@H]3[C@@H](CC[C@@H]4C[C@H]5S[C@H]5C[C@]43C)[C@H]1CC[C@H]2O", "Potency": "inconclusive [inhibitor, single point]"}
{"smiles": "CC(=O)c1cccc(NC(=O)N2CCCC2C(=O)NCc2ccc3c(c2)OCO3)c1", "note": "(stereo not drawn)", "Potency": "inconclusive [inhibitor, partial curve, poor fit]"}
{"smiles": "Cc1cc(OC(=O)c2cccc([N+](=O)[O-])c2)c(C)cc1CN1CCOCC1", "Potency": "inconclusive [inhibitor, full curve, poor fit]"}
{"smiles": "COc1cc(/C=C(\\C#N)C(=O)Nc2cccc(C(=O)O)c2)ccc1OCc1ccc(F)cc1", "Potency": "inactive"}
{"smiles": "O=C(Nc1ccc(O)cc1)c1cccc(Oc2ccc([N+](=O)[O-])cc2)c1", "Potency": "inactive"}
{"smiles": "Cc1cc(C(N)=O)nn1-c1c(Cl)cc(Cl)cc1Cl", "Potency": "inactive"}
{"smiles": "CC(C(Sc1ccccc1N)c1ccccc1)[N+](=O)[O-]", "note": "(stereo not drawn)", "Potency": "active: 2.62 µM"}
{"smiles": "CCOC(=O)c1c(C)n(C)c2ccc(OCC(O)Cn3c(C)nc4ccccc43)cc12", "note": "(stereo not drawn)", "Potency": "active: 10.4 µM"}
{"smiles": "COc1ccc(CN(C(=O)c2oc3ccccc3c2C)C2CCS(=O)(=O)C2)cc1OC", "note": "(stereo not drawn)", "Potency": "inconclusive [inhibitor, single point]"}
{"smiles": "COc1cc(C(=O)NNC(=O)c2cc(S(=O)(=O)N(C)C)ccc2N2CCCC2)cc(OC)c1OC", "Potency": "inconclusive [inhibitor, single point]"}
{"smiles": "COc1cc(OC)cc(C(=O)NCCOC23CC4CC(CC(C4)C2)C3)c1", "Potency": "inactive"}
{"smiles": "COc1ccc(/C(N)=N/OC(=O)c2c(-c3ccccc3Cl)noc2C)cc1OC", "Potency": "inconclusive [inhibitor, partial curve]"}
{"smiles": "Cc1cc(NC(=O)CSc2nc3c(C)c(C)ccc3cc2C)no1", "Potency": "inconclusive [inhibitor, single point]"}
{"smiles": "NC(=O)c1cc(S(=O)(=O)N2CCCC2)ccc1OCCOc1ccccc1", "Potency": "inconclusive [inhibitor, single point]"}
{"smiles": "COc1ccc(CCNC(=O)c2cc3c(=O)n(C)c4ccccc4c3n2C)cc1OC", "Potency": "inconclusive [inhibitor, single point]"}
{"smiles": "COc1ccc(C2CC(=O)Oc3c(C(CCN4CCCC(C)C4)c4ccc(N(C)C)cc4)c(OC)cc(OC)c32)cc1", "note": "(stereo not drawn)", "Potency": "inconclusive [inhibitor, partial curve, poor fit]"}
{"smiles": "CCCCNC(=O)c1cc2nc3c(c(C(F)(F)F)n2n1)CCc1ccccc1-3", "Potency": "inconclusive [inhibitor, single point]"}
{"smiles": "O=C(NCc1ccc2c(c1)OCO2)C(=O)Nc1cc2c3c(c1)CC(=O)N3CCC2", "Potency": "inconclusive [inhibitor, partial curve]"}
{"smiles": "COC(=O)C1=C(c2ccc(F)cc2F)C[C@@H]2CC[C@H]1N2C(=O)NCCOc1ccccc1Cl", "Potency": "inconclusive [inhibitor, single point]"}
{"smiles": "CCN(CC(=O)NCc1ccc(F)cc1)C(=O)/C=C/c1ccc(OC)c(S(=O)(=O)NC(C)C)c1", "Potency": "inconclusive [inhibitor, partial curve, poor fit]"}
{"smiles": "NCCCn1c(C(=O)c2ccc(Cl)cc2)c2ccc([N+](=O)[O-])cc2[n+]1[O-]", "Potency": "inconclusive [inhibitor, single point]"}
{"smiles": "COC(=O)c1sc(NC(=O)C2CCCCC2C(=O)O)c(C(=O)OC)c1C", "note": "(stereo not drawn)", "Potency": "inactive"}
{"smiles": "COc1cc(NC(=O)CSc2nc(=O)n(CCN3CCOCC3)c3c2CCC3)cc(OC)c1", "Potency": "inactive"}
{"smiles": "COc1cc2c(cc1NC(=O)Cn1cnc3c1c(=O)n(C)c(=O)n3C)oc1ccccc12", "Potency": "inactive"}
{"smiles": "COc1ccccc1CCNC(=O)C(=O)NCC1OCCN1S(=O)(=O)c1ccc(Cl)cc1", "note": "(stereo not drawn)", "Potency": "inconclusive [inhibitor, single point]"}
